How the values were obtained:
[1] = tested on: yeast S. cerevisiae MaV208 transcriptome; experiment: RNA-seq in yeast MaV208; assay type: cell-based
Method: After yeast cells reached OD600 nm ˜0.5 in 0.8-1 mL of YPD, they were grown for two more hours at room temperature before being centrifuged to remove supernatant and freezing pellets on dry ice. For compound treatments, yeast cells at OD600 nm˜0.5 in YPD were incubated at room temperature for two hours with DMSO (1-1.6%) or the desired compound (from 25 mM stock in 100% DMSO) in an 2 mL-tube for a final volume of 0.8 mL in YPD, before being centrifuged, washed and frozen as described above. Yeast cells were then harvested for RNA extraction using a RiboPure RNA Purification Kit (Invitrogen, cat #AM1926), which involves mechanical cell wall disruption, phenol extraction of the lysate, and RNA purification using glass fiber, and filter-based RNA purification columns. RNA concentration was measured for individually purified RNA samples using a NanoDrop spectrophotometer. A total of 1 μg RNA from each sample was used for reverse transcription following a published procedure [Choi, S. G. et al 2012].
(§1) Following identical treatments as for RT-qPCR measurements, RNA was extracted as described above for yeast and neuroblastoma cells. Quality of the samples was checked by RT-qPCR before processing to RNA-Seq. RNA-Seq libraries for yeast (n=3 per condition) and neuroblastoma cells (n=3 per condition) were prepared according to the TruSeq stranded mRNA protocol (Illumina) and 101-bp single-end reads produced on an Illumina NovaSeq 6000 instrument. Reads were mapped to the human GRCh38 transcriptome (Ensembl cDNA release 97) or S. cerevisiae R64-1-1 (Ensembl cDNA release 97) and quantified using Salmon v0.8.2 [Patro et al 2017]. Read counts were summed to the gene level using tximport [Soneson et al 2015] and differential expression was assessed using DESeq2 [Love et al 2014]. Heatmaps were generated in R using the pheatmap package. The p-values of the overlaps were determined using two-sided Fisher's exact test and calculated using python function scipy.stats.fisher_exact.
All samples received the same amount of DMSO (0.7% of the total volume) for direct, side-by-side comparisons.

[2] = molecular target: Sin3 PAH2/Ume6 SID interaction (Saccharomyces cerevisiae, UniProt P22579); experiment: biochemical
Rpd3L HDAC complex = experiment: Yeast URS-URA3 reporter assay, agar diffusion format; assay type: cell-based, S. cerevisiae
Method: To identify small molecule perturbants in an agar diffusion assay format, yeast cells were first seeded on the appropriate solid media (dried for at least three days at room temperature), at the indicated cell density per plate. After ˜30 min, compounds (dissolved in 100% DMSO) were then spotted (˜1 to 5 μL) at the indicated concentrations onto the seeded cells, to allow diffusion and formation of a circular concentration gradient around the original spot.
Using the agar diffusion assay format described above, the yeast Rpd3L HDAC complex was interrogated against 52,234 candidate small molecules (FIG. 32), tested in duplicate. JOY134 yeast cells were seeded at a density of ˜5×10^9 cells per plate on solid SC-LU medium, poured into Nunc OmniTray petri dishes. […] After five to seven days of incubation at 30° C., each duplicated plate was manually scored by comparing the rings of growth from candidate compounds to the DMSO controls. […]
The design of the assay is such that wild-type URS-URA3 yeast cells are plated onto solid medium lacking uracil. […] This primary positive selection for growth has obvious advantages over settings using negative readouts, such as reduction of reporter signal or cell viability. […]

[3] = tested on: transcriptome of neuroblastoma SK-N-BE(2)-C cells; experiment: RNA-seq in neuroblastoma cells; assay type: cell-based, human; conditions: for number of genes perturbed (RNA-Seq): 1 μM TSA, 25 μM E6R, at least two fold vs DMSO
Method: SK-N-BE(2)-C cells were maintained in cell culture flasks supplemented with 10% Fetal bovine serum (FBS) and penicillin/streptomycin (PS) in Dulbecco's Modified Eagle's Medium (DMEM). The cells were maintained at a log phase in a humidified 5% CO2 incubator at 37° C. For testing the effect of the compounds on gene expression, approximately 0.1 million cells were seeded on each well of 24-well cell culture plates, with 1 mL 10% FBS+PS+DMEM. 24 h after seeding the cells, they were exposed to the compounds or DMSO control for 16 h in a humidified 5% CO2 incubator at 37° C., before harvesting them.
as §1

[4] = inhibitory concentration (Ki), from Example 6 IC50, assuming competitive inhibition
[5] = inhibitory concentrations (Ki), from Example 6A IC50, assumption of competitive inhibition

Sin3 PAH2/Ume6 SID interaction, sequence (P22579 402-473): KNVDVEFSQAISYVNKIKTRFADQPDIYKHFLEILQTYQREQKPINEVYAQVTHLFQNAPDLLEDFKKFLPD

SMILES: CC(NC(=O)c1c(O)n2ccccc2nc1=O)c1ccccc1 (racemic) [E6]
- share of differentially regulated genes in sin3Δ similarly affected ([1]; 69/592): ~12%
- share of differentially regulated genes due to decreased Sin3 occupancy in promoter ([1]; RNA-Seq versus ChIP-Seq, 47/351): ~13%
- Ki [2, 4]: ~30 µM
- Ki [2, 5]: 29.1 µM
- phenotype in URS-URA3 reporter assay (Rpd3L HDAC complex; wild-type URS-URA3 yeast, media lacking uracil / 5FOA): single Ura^+/Foa^− phenotype

SMILES: C[C@@H](NC(=O)c1c(O)n2ccccc2nc1=O)c1ccccc1 [E6R, 4-hydroxy-2-oxo-N—((R)-1-phenylethyl)-3,4-dihydro-2H-pyrido[, 2-a]pyrimidine-3-carboxamide]
- number of genes perturbed (RNA-Seq) [3]: 289 genes
- fewer human genes perturbed compared to TSA ([3]; 25 μM E6R vs 1 μM TSA): approximately 20 fold
- genes also affected, out of 179 changed by rpd3Δ, sin3Δ and TSA ([1]; 50 μM): 43 genes
- share of the 179 genes changed by rpd3Δ, sin3Δ and TSA also affected ([1]; 50 μM): ~25%
- share of Sin3- and Rpd3-dependent genes with altered expression ([1]; RNA-seq): 20%
- differentially expressed genes, down ([1]; WT+20 μM TSA or WT+50 μM E6R): 114 genes
- differentially expressed genes, up ([1]; WT+20 μM TSA or WT+50 μM E6R): 237 genes
- differentially expressed genes, total ([1]; WT+20 μM TSA or WT+50 μM E6R, fold change >2, p adjusted <0.05): 351 genes
- IC50 [2]: 74.5 ± 7.2 µM
- Ki [2, 4]: ~30 µM
- Ki [2, 5]: 16.1 µM

SMILES: CC(/C=C/C(=O)NO)=C\[C@@H](C)C(=O)c1ccc(N(C)C)cc1 [TSA, trichostatin A]
- number of genes perturbed (RNA-Seq) [3]: 6,103 genes
- chemical-genetic interaction in URS-URA3 reporter assay (Rpd3L HDAC complex; strains lacking Pho23 or Ume1): enhanced Ura^+/Foa^− phenotypes
